For test [1], the target named is IRE1β-Avi (biotinylated by co-expressed BirA) (human) (UniProt Q76MJ5). The test can be described thus: co-IP; competition co-IP: IRE1β-Avi and IRE1β-FLAG in equal molar amounts with BirA, with or without AGR2 (wild type or mutant; ~2.5:1, or 1:1 to ~4:1 AGR2:IRE1β cDNA) in HEK293T; streptavidin beads, E1A buffer, 1 h at 4 °C; blots with anti-AGR2, anti-FLAG and streptavidin.

Chains of the proteins cited; added tags and fusions are not shown. Lines headed by an entry give the natural chain unless they say otherwise; changes in a name come on top. A line that says so, or that is headed by a name, gives the form on record, which may keep a tag or linker. Residues count along the entry.
UniProt Q76MJ5, residues 35-926: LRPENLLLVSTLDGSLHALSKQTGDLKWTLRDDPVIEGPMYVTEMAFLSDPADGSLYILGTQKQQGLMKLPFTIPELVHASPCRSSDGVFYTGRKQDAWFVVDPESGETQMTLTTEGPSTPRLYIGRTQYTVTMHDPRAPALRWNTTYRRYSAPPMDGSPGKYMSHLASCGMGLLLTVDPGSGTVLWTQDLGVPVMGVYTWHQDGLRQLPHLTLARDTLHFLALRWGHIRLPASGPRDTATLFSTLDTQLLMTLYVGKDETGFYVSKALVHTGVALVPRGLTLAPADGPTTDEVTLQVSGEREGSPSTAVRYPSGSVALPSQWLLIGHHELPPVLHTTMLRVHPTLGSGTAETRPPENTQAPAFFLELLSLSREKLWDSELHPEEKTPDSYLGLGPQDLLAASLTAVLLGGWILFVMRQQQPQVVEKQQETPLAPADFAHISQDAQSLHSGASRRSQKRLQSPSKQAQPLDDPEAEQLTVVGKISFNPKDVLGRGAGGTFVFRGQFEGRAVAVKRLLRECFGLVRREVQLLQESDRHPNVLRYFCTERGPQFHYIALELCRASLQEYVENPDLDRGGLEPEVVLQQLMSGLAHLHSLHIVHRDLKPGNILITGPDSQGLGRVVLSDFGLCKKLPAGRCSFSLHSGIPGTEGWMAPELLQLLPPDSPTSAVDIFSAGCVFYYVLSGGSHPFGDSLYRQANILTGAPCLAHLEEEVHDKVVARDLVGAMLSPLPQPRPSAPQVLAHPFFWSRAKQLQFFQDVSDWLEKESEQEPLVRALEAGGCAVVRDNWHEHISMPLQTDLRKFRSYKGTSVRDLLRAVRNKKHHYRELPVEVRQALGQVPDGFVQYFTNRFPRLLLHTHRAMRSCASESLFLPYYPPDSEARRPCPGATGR
AGR2 wild type (overexpressed in HEK293T cells) (O95994, residues 21-175): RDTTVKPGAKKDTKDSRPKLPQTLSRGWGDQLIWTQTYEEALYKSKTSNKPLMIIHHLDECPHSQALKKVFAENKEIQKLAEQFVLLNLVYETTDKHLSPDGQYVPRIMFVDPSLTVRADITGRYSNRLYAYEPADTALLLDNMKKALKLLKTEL
AGR2 C81S (O95994, form named): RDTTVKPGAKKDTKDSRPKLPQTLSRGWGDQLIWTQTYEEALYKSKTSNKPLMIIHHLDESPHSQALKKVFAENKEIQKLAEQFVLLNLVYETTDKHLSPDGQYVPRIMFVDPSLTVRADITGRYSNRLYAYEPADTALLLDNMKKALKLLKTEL
AGR2 E60A (O95994, form named): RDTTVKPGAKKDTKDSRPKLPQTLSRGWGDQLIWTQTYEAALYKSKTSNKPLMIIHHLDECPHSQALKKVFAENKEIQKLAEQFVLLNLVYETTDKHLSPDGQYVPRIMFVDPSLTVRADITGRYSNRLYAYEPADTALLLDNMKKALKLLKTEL
AGR2 H117Y (O95994, form named): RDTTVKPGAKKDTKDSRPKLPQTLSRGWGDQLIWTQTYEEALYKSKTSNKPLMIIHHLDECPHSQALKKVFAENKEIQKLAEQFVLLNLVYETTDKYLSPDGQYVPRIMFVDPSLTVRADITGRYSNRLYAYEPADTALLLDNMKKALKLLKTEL
AGR2 K64A (O95994, form named): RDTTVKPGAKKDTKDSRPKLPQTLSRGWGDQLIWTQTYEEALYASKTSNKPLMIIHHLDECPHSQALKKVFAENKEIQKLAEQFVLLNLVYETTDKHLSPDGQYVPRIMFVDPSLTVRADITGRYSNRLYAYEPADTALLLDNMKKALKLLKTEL

Test [2] deals with IRE1β-FLAG (doxycycline-inducible, in Calu-1 ERN1-/- cells) (human) (UniProt Q76MJ5). The test is described as follows: SEC; Superose6 Increase 10/300 GL, cleared lysates of Calu-1 ERN1-/- IRE1β-FLAG cells (16 h doxycycline) with AGR2 or control protein; 150 mM NaCl, 25 mM Tris pH 8.0, 0.5 mM dodecylmaltoside, 5 mM β-mercaptoethanol; fractions blotted with anti-FLAG and anti-AGR2. Background: In gel filtration, larger molecules generally elute earlier.

Test [3] concerns the target IRE1β-Avi (biotinylated by co-expressed BirA) (human) (UniProt Q76MJ5). The test is described as follows: co-IP; streptavidin-bead precipitation of BirA-biotinylated IRE1α-Avi or IRE1β-Avi from HEK293T lysates co-transfected with AGR2 (~2.5:1 AGR2:IRE1 cDNA); E1A buffer (1% NP-40, 250 mM NaCl, 20 mM HEPES pH 7.9); 1 h at 4 °C; blot for AGR2; BirA omitted as control.

This is an account of results in PMC10907643.

These are yes or no findings as the source states them, for the method shown. For some assays here: Binding seen in cells or lysates may run through a third protein. Some entries that bind do so weakly or less than the wild type.

With AGR2 C81S (from UniProt O95994 21-175), the binding entry in test [1] is on record as “no binding”. Regarding AGR2 E60A (from UniProt O95994 21-175), the binding result in test [1] is “binds”. AGR2 H117Y (from UniProt O95994 21-175): in test [1], the binding entry is “no binding”. The same measure, in the same setting: as for AGR2 K64A (from UniProt O95994 21-175), the entry is “binds”. Regarding “AGR2 wild type (constitutive lentiviral transgene in Calu-1 cells) (from UniProt O95994 21-175)”, in test [2], the binding result is “binds”.

As to “AGR2 wild type (overexpressed in HEK293T cells) (from UniProt O95994 21-175)”, the binding entry in test [1] and in test [3] was “binds” in each case. On to “IRE1β-FLAG (transiently expressed in HEK293T cells) (from UniProt Q76MJ5 35-926)”, for which the binding result in test [1] was “binds”.
